# According to the supplement of paper PMC4604168 (melanoma cell lines):
# Some of the results follow. Many values rest on one well or one pass, so single values are uncertain.
# Assays:
# Assay in all cases: cell count relative to DMSO control; melanoma cells; higher = more viable cells
# Conditions in all cases: library dose: standard library concentration; 72 h
# G361 = test system: G361
# IPC-298 = test system: IPC-298
# IST-MEL1 = test system: IST-MEL1
# LB2518-MEL = test system: LB2518-MEL
# LOXIMVI = test system: LOXIMVI
# MEL-HO = test system: MEL-HO
# MZ2-MEL = test system: MZ2-MEL
# MeWo = test system: MeWo
# RPMI7951 = test system: RPMI7951
# RVH-421 = test system: RVH-421
# 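Note: cells treated in 1,536-well plates, then fixed and DAPI-stained, with nuclei counted from automated high-throughput microscope images.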
SMILES,cell count (G361) [%],cell count (IPC-298) [%],cell count (IST-MEL1) [%],cell count (LB2518-MEL) [%],cell count (LOXIMVI) [%],cell count (MEL-HO) [%],cell count (MZ2-MEL) [%],cell count (MeWo) [%],cell count (RPMI7951) [%],cell count (RVH-421) [%]
"CN1CCN(c2ccc3nc(-c4c(N)c5c(F)cccc5[nH]c4=O)[nH]c3c2)CC1 [Dovitinib] + COc1ccc2c(c1)CCC1C2CCC2(C)C(NCCCCCCN3C(=O)C=CC3=O)CCC12 [U73122] (first compound 0.5 µM, partner dose 2 µM)",91.7,99.5,97.8,65.1,70.7,104,75.8,58.8,59.9,113
"CN1CCN(c2ccc3nc(-c4c(N)c5c(F)cccc5[nH]c4=O)[nH]c3c2)CC1 [Dovitinib] + O=C(Nc1cccc(Cl)c1)Nc1ncc(CCNc2ncnc3ccsc23)s1 [SNS314] (first compound 0.5 µM, partner dose 0.004 µM)",53.1,62.4,49.8,61.9,70.4,78.1,52,56.1,87.4,81.7
"C[C@@H](Oc1cc(-c2cnn(C3CCNCC3)c2)cnc1N)c1c(Cl)ccc(F)c1Cl [Crizotinib] + CNC(=O)c1cc(Oc2ccc(NC(=O)Nc3ccc(Cl)c(C(F)(F)F)c3)cc2)ccn1 [sorafenib] (first compound 1 µM, partner dose 2 µM)",83.4,81.9,93.9,75.5,189,107,96.1,95.5,95.7,78.5
"CN1CCN(c2ccc3nc(-c4c(N)c5c(F)cccc5[nH]c4=O)[nH]c3c2)CC1 [Dovitinib] + CCCS(=O)(=O)Nc1ccc(F)c(C(=O)c2c[nH]c3ncc(Cl)cc23)c1F [PLX4720] (first compound 0.5 µM, partner dose 0.4 µM)",41.1,52.5,60.6,52.1,70.1,62.2,45.1,45.1,63.3,52.2
"CS(=O)(=O)CCNCc1ccc(-c2ccc3ncnc(Nc4ccc(OCc5cccc(F)c5)c(Cl)c4)c3c2)o1 [lapatinib] + Oc1cc(-c2nc(-c3ccccc3)[nH]c2-c2ccncc2)ccc1Cl [L779450] (first compound 4 µM, partner dose 1 µM)",43.5,78.1,73.3,85.9,121,70.6,67.9,67.1,49.6,68.9
"C[C@@H](Oc1cc(-c2cnn(C3CCNCC3)c2)cnc1N)c1c(Cl)ccc(F)c1Cl [Crizotinib] + Cn1cc(/C=C2\C(=O)Nc3cccnc32)c2ccccc21 [GW441756] (first compound 1 µM, partner dose 2 µM)",94.5,91.8,123,92.7,103,106,105,108,103,105
"CS(=O)(=O)CCNCc1ccc(-c2ccc3ncnc(Nc4ccc(OCc5cccc(F)c5)c(Cl)c4)c3c2)o1 [lapatinib] + O=C(CCCCCCC(=O)Nc1ccccc1)NO [vorinostat] (first compound 4 µM, partner dose 0.4 µM)",42.2,89.5,83.4,82.7,90.3,64.8,64.9,78.1,30.9,86.7
"CNC(=O)c1cc(Oc2ccc(NC(=O)Nc3ccc(Cl)c(C(F)(F)F)c3)cc2)ccn1 [sorafenib] + Oc1cc(-c2nc(-c3ccccc3)[nH]c2-c2ccncc2)ccc1Cl [L779450] (first compound 2 µM, partner dose 1 µM)",69.8,75.2,82.4,93.2,103,88.3,105,77.5,78.6,82.9
"CNC(=O)c1cc(Oc2ccc(NC(=O)Nc3ccc(Cl)c(C(F)(F)F)c3)cc2)ccn1 [sorafenib] + O=S(=O)(c1ccccc1)N(CC(F)(F)F)c1ccc(C(O)(C(F)(F)F)C(F)(F)F)cc1 [T0901317] (first compound 2 µM, partner dose 7 µM)",68.4,80.4,97.8,105,165,106,101,80.9,78.9,95.3
"C[C@@H](Oc1cc(-c2cnn(C3CCNCC3)c2)cnc1N)c1c(Cl)ccc(F)c1Cl [Crizotinib] + Oc1nc(-c2ccc(C(F)(F)F)cc2)nc2c1CSCC2 [XAV939] (first compound 1 µM, partner dose 10 µM)",86.1,84.7,96.1,84.8,87.8,103,84,78.9,87.6,71.3
"CS(=O)(=O)CCNCc1ccc(-c2ccc3ncnc(Nc4ccc(OCc5cccc(F)c5)c(Cl)c4)c3c2)o1 [lapatinib] + N#Cc1c(O)c2c(-c3ccc(-c4ccccc4O)cc3)csc2[nH]c1=O [A769662] (first compound 4 µM, partner dose 10 µM)",85,93.4,82.4,119,109,70.1,76.1,71.1,61.3,113
"CNC(=O)c1cc(Oc2ccc(NC(=O)Nc3ccc(Cl)c(C(F)(F)F)c3)cc2)ccn1 [sorafenib] + Cc1ccc(NC(=O)c2cccc(N(C)C)c2)cc1NC(=O)c1ccc(O)cc1 [ZM336372] (first compound 2 µM, partner dose 10 µM)",101,104,83.8,92.4,129,98.1,116,81.2,116,92.6
"CNC(=O)c1cc(Oc2ccc(NC(=O)Nc3ccc(Cl)c(C(F)(F)F)c3)cc2)ccn1 [sorafenib] + Cc1cc([N+](=O)[O-])ccc1NS(=O)(=O)c1cc(Cl)ccc1Cl [FH535] (first compound 2 µM, partner dose 5 µM)",14.5,35.7,61.3,57.7,188,45.7,36.9,60.1,27.4,33.7
"CS(=O)(=O)CCNCc1ccc(-c2ccc3ncnc(Nc4ccc(OCc5cccc(F)c5)c(Cl)c4)c3c2)o1 [lapatinib] + C=CCNC1=C2C[C@@H](C)C[C@H](OC)[C@H](O)[C@@H](C)/C=C(\C)[C@H](OC(N)=O)[C@@H](OC)/C=C\C=C(/C)C(=O)NC(=CC1=O)C2=O [Tanespimycin] (first compound 4 µM, partner dose 0.01 µM)",36.4,90.7,43.1,86.5,76.1,71.1,70,71,5.51,91.9
"CS(=O)(=O)CCNCc1ccc(-c2ccc3ncnc(Nc4ccc(OCc5cccc(F)c5)c(Cl)c4)c3c2)o1 [lapatinib] + COc1cc2ncnc(Nc3ccc(Oc4ccccc4)cc3)c2cc1OC [SrcI1] (first compound 4 µM, partner dose 10 µM)",9.19,71,85.6,94.3,67.1,70.3,47.3,66.9,7.39,75.9
"CS(=O)(=O)CCNCc1ccc(-c2ccc3ncnc(Nc4ccc(OCc5cccc(F)c5)c(Cl)c4)c3c2)o1 [lapatinib] + Nc1ncn([C@H]2C[C@H](O)[C@@H](CO)O2)c(=O)n1 [decitabine] (first compound 4 µM, partner dose 0.5 µM)",73.6,62.1,78.2,70.6,116,83.4,59.1,68.1,41.6,60.1
"C[C@@H](Oc1cc(-c2cnn(C3CCNCC3)c2)cnc1N)c1c(Cl)ccc(F)c1Cl [Crizotinib] + OCc1c[nH]c2ccccc12 [Indole-3-carbinol] (first compound 1 µM, partner dose 4 µM)",81.9,75,94,79.6,157,90.6,102,73.8,83.9,94.6
"CN1CCN(c2ccc3nc(-c4c(N)c5c(F)cccc5[nH]c4=O)[nH]c3c2)CC1 [Dovitinib] + COc1ccc(-c2ccc3c(N4CCOCC4)nc(N4C[C@@H](C)O[C@@H](C)C4)nc3n2)cc1CO [KU0063794] (first compound 0.5 µM, partner dose 0.1 µM)",79.1,62.9,102,63.8,88,74.1,76.1,81.5,99.5,82.7
"CS(=O)(=O)CCNCc1ccc(-c2ccc3ncnc(Nc4ccc(OCc5cccc(F)c5)c(Cl)c4)c3c2)o1 [lapatinib] + COC(=O)c1sccc1S(=O)(=O)Nc1ccc(Nc2ccccc2)cc1OC [GSK0660] (first compound 4 µM, partner dose 5 µM)",74.9,78,109,106,101,79.1,64.2,64.2,64.6,89.1
"CN1CCN(c2ccc3nc(-c4c(N)c5c(F)cccc5[nH]c4=O)[nH]c3c2)CC1 [Dovitinib] + CC(C)(C)c1cnc(CSc2cnc(NC(=O)C3CCNCC3)s2)o1 [SNS-032] (first compound 0.5 µM, partner dose 0.05 µM)",67.7,91.3,81,49.8,71.5,83.5,59.1,56.6,62.8,76.4
